According to paper PMC4336329 (PLoS ONE, 2015):
About 14,000 (4.5%) of roughly 310,000 compounds showed an effect of 50% or more. The effect is printed as a negative number. The list shows a part of the results.

Molecular target: human ether-à-go-go-related gene (hERG) potassium channel (human, UniProt Q12809)
Assay: primary screen, population patch clamp on CHO cells stably expressing hERG
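Further: peak tail current of the secondary pulse compared with the same well before compound.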

Sequence of human ether-à-go-go-related gene (hERG) potassium channel (Q12809 whole entry, looked up): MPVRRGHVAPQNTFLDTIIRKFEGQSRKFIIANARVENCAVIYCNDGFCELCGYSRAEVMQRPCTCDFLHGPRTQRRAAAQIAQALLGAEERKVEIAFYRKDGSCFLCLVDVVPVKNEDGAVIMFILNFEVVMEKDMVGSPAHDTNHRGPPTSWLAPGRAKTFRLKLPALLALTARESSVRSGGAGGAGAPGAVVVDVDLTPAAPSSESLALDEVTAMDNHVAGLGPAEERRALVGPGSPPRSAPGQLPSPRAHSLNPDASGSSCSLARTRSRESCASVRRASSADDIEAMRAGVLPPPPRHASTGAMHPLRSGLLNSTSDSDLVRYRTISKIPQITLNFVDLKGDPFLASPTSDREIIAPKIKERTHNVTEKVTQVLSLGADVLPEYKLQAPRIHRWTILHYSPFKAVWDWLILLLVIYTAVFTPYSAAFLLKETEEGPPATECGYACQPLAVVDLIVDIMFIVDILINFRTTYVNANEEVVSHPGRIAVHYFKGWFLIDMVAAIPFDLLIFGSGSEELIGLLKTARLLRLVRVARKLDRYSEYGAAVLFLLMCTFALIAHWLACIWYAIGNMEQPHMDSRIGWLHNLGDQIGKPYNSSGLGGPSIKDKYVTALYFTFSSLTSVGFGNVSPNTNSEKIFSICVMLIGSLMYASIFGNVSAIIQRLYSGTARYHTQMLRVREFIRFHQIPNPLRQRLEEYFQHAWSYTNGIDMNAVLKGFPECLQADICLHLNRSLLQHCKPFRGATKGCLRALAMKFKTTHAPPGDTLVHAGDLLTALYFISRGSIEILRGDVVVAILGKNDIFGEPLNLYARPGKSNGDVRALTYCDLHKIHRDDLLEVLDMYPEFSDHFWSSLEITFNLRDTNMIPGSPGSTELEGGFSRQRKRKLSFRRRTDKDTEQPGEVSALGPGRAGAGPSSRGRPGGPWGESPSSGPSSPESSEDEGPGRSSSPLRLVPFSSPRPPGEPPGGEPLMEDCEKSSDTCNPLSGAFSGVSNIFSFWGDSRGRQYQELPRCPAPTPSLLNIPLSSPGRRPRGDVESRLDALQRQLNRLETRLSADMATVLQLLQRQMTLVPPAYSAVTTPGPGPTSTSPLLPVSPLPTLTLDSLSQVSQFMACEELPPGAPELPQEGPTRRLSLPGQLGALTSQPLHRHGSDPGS

| SMILES | hERG current change (%, negative = inhibition) at 10uM [%] |
| --- | --- |
| CCCCSc1nnc(CSc2nc3nc(C)cc(C)n3n2)o1 | -31.9 |
| COc1ccc(-c2cc(C(F)(F)F)n3ncc(C(=O)Nc4c(C)n(C)n(-c5ccccc5)c4=O)c3n2)cc1 | 10.7 |
| O=C(Nc1ccc(Nc2ccccc2)cc1)c1c(F)c(F)c(F)c(F)c1F | 22.9 |
| Cc1cc(C2=CC(C)(c3cc(C)oc3C)Nc3nc(C(F)(F)F)nn32)c(C)o1 (stereo not drawn) | 11.6 |
| Cn1/c(=N/N=C/c2ccc(Cl)c([N+](=O)[O-])c2)sc2ccccc21 | 8.02 |
| Cc1cc(C)cc(NS(=O)(=O)c2c(C(=O)N3CCOCC3)c(C)n(C)c2C)c1 | 11.8 |
| CCc1cccc(NC(=O)c2cc(S(=O)(=O)N(C)C)ccc2N2CCCC2)c1 | -36.9 |
| FC(F)(F)c1ccc(NCc2ccccn2)nc1 | -1.34 |
| O=C(COC(=O)c1cc(-c2ccc(F)cc2)nc2ccccc12)NCC1CCCO1 (stereo not drawn) | -36.6 |
| O=C(/C=C/c1cccs1)Nc1cccc(NC(=O)/C=C/c2cccs2)n1 | 6.25 |
| COc1cc(C(=O)Nc2sc(C(=O)N3CCOCC3)c(C)c2C#N)cc(OC)c1OC | 10.3 |
| CCNC(=S)Nc1cc(OCC)c(N2CCOCC2)cc1OCC | 5.43 |
| O=C(N/N=C/C1CCCCC1)c1ccccc1-n1cccc1 | 0.893 |
| CCN(CC)S(=O)(=O)c1cccc(-c2nnc(SCC(=O)NC3CCCCCCC3)n2N)c1 | -30.2 |
| O=C(C[n+]1cc(-c2ccccc2)n2c1CCC2)Nc1nc(-c2ccccc2)cs1.[Cl-] | -35.1 |
| c1ccc(N2CCOCCOCCOCCOCC2)cc1 | -2.67 |
| O=C(COC(=O)C1=COCCO1)Nc1c(F)cccc1F | -0.215 |
| COc1cccc(-c2nc(CS(=O)(=O)CC(=O)N3CCN(C4CCCCC4)CC3)c(C)o2)c1 | -24.6 |
| O=C(NC1CCCC1)C1CCCN1C(=O)Nc1ccc(Cl)cc1 (stereo not drawn) | 0.574 |
| O=c1[nH]c(NCCO)nnc1Cc1ccccc1 | 15.7 |
| COCCNC(=O)CCCn1c(=O)c2cc(OC)c(OC)cc2n(CC(=O)NCCC2=CCCCC2)c1=O | -2.16 |
| NC(=O)c1ccccc1NC(=O)/C=C/c1c(Cl)cccc1Cl | -31.3 |

| SMILES | hERG current change (%, negative = inhibition) at 10uM [%] |
| --- | --- |
| Cc1c(/C=C/C(=O)c2ccc(Cl)s2)cnn1C | 2.76 |
| COc1ccc(C(Cl)=C(c2ccc(OC)cc2)c2ccc(OC)cc2)cc1 | 26.2 |
| CN1C(=O)N(CC(=O)Nc2nccs2)C(=O)C12CCCCC2 | 0.285 |
| O=C(CC1SCCNC1=O)Nc1ccc(F)c(Cl)c1 (stereo not drawn) | 8.96 |
| COc1ccc(/C=N/NC(=O)C(=O)NCc2cccnc2)cc1 | 11 |
| O=C(Nc1cccc2c1N(C(=O)c1ccco1)CCC2)c1ccco1 | 14.4 |
| CCCc1c2c(cc3c(=O)cc(C(=O)OCC)oc13)CCCC2 | -0.971 |
| CCc1ccc(-n2c(=O)c3ccc(C(=O)NCCc4ccccc4)cc3n(CC(N)=O)c2=O)cc1 | 14.6 |
| O=C(COc1ccc(Br)cc1)NC(=S)Nc1ccccc1N1CCOCC1 | 13.7 |
| COc1ccc(C(CNC(=O)c2ccc(Cl)s2)N2CCOCC2)cc1 (stereo not drawn) | -18.2 |
| CC(NC(=O)C1c2ccccc2Oc2ccccc21)C1CCCO1 (stereo not drawn) | 13.1 |
| COc1cccc(NC(=O)c2cccc(S(=O)(=O)N3CCN(Cc4ccccc4)CC3)c2)c1 | -0.239 |
| Cc1cc(Br)c(NC(=O)COn2nnc3ccc(S(C)(=O)=O)cc32)c(Br)c1 | -1.77 |
| CC(=O)Nc1sc(N/N=C\c2ccccc2)nc1-c1cccs1 | 13.2 |
| CCOc1cccc(/C(O)=C2/C(=O)C(=O)N(CCN3CCOCC3)C2c2ccncc2)c1 (stereo not drawn) | -2.9 |
| Cc1ccnc(NS(=O)(=O)c2ccc(NS(=O)(=O)c3ccccc3)cc2)n1 | -8.8 |
| O=C(CNC(=O)c1ccco1)NCC(=O)OCc1ccc(Cl)cc1Cl | -40 |
| Cc1ccc2c(CC(=O)NNC(=O)c3ccccc3O)coc2c1 | 4.63 |
| NS(=O)(=O)c1ccc(N/N=C/c2ccc(C(=O)O)cc2)c([N+](=O)[O-])c1 | 0.688 |
| Cc1ccc(NNC(=O)c2ccno2)cc1C | 3.69 |
| COc1ccc(-c2cc(C)no2)cc1S(=O)(=O)N1CCN(C(=O)c2ccco2)CC1 | -6.28 |
| COc1ccc(/C=N/Nc2ncnc(Cl)c2N)cc1OC | 1.21 |

| SMILES | hERG current change (%, negative = inhibition) at 10uM [%] |
| --- | --- |
| COc1ccc(-c2cc(=O)c3c(O)cc(O)cc3o2)cc1 | 14.5 |
| CC1CCN(C(=O)COC(=O)c2ccc(F)c(S(=O)(=O)N3CCOCC3)c2)CC1 | 2.38 |
| O=C(Oc1ccc(Br)cc1)c1cccc(S(=O)(=O)N2CCOCC2)c1 | -35.6 |
| COc1ccc(N(CC(=O)NC(C)c2ccccc2)S(=O)(=O)c2c(C)noc2C)cc1 (stereo not drawn) | 8.89 |
| CSc1nc(-c2ccccc2)nc(C(Cl)Cl)n1 | 8.69 |
| COc1cc([N+](=O)[O-])ccc1NC(=S)Nn1cnnc1 | 23.1 |
| COc1ccc(OC)c2[nH]c(=O)c(CCNS(=O)(=O)c3ccc(F)cc3)cc12 | 1.59 |
| CCCC(=O)Nc1ccc(Oc2ccc(NC(=O)CCC)cc2)cc1 | 2.76 |
| Cc1ccc(-c2n[nH]c(=S)n2/N=C\c2ccco2)cc1 | 24.1 |
| O=c1cc(N2CCN(Cc3ccccc3)CC2)[nH]c(=O)n1-c1ccc(Br)cc1 | -10.7 |
| CC(C)(C)C(=O)NC1CCN(S(=O)(=O)c2ccc(C(F)(F)F)cc2)CC1 | -18 |
| CC(=O)Oc1ccc(C23CC4CC(CC(C4)C2)C3)cc1C(=O)O | 14.2 |
| CCOC(=O)C1=C(C)N(C)C(C)=C(C(=O)OCC)C1c1ccncc1 | -9.93 |
| CSC1=C(C#N)C(C)CC(=O)N1 (stereo not drawn) | 7.92 |
| CCN(CC(=O)N1CCC(C(N)=O)CC1)S(=O)(=O)c1ccc(Cl)cc1 | 3.96 |
| COc1ccccc1N(CC(=O)NCC1CCCO1)C(=O)CNS(=O)(=O)c1ccc(C)cc1 (stereo not drawn) | 11.5 |
| CC(C)C(C(=O)Nc1nccs1)N1C(=O)c2ccccc2C1=O (stereo not drawn) | 22.7 |
| O=C(c1ccccc1Cl)N1CCN(c2ccccn2)CC1 | 2.7 |
| CCN1CCN(c2cc(C)c3cc(NC(=O)c4cccs4)ccc3n2)CC1 | -55.1 |
| CCOC(=O)C1CCN(S(=O)(=O)c2cc(C(=O)OC)n(C)c2)CC1 | -8.49 |
| Cc1[nH]c(=O)c(C(=O)/C=C/c2ccccc2F)c2c1CCCC2 | 0.445 |
| O=[N+]([O-])c1cc(C(F)(F)F)ccc1N1CCN(CCO)CC1 | -43 |

| SMILES | hERG current change (%, negative = inhibition) at 10uM [%] |
| --- | --- |
| Cc1cc(C)nc(NC(=O)C2c3ccccc3Oc3ccccc32)n1 | 7.78 |
| COC(=O)C1=C(CCc2ccccc2)NC(=O)NC1c1ccc([N+](=O)[O-])cc1 (stereo not drawn) | -23.2 |
| COCCNC(=O)CN(Cc1ccc2c(c1)OCO2)C(=O)CCC(=O)Nc1nccs1 | 13.6 |
| COc1cccc(OC)c1C(=O)NN1CCCCC1 | 3.23 |
| COC(=O)c1ccc(C2C(C(=O)c3ccco3)=C(O)C(=O)N2c2cc(C)on2)cc1 (stereo not drawn) | 21.6 |
| COc1cc(/C=C2\SC(=O)NC2=O)ccc1Oc1ccc([N+](=O)[O-])cc1[N+](=O)[O-] | 20.2 |
| Cc1cccc(C(=O)NCCNc2nc3cc(C)c(C)cc3cc2C)c1 | -2.14 |
| COc1cccc(/C=C/C(=O)Nc2ccccc2N2CCOCC2)c1 | -15.4 |
| CCCCC1CCC(C(=O)Nc2ccc(S(=O)(=O)Nc3nccs3)cc2)CC1 (stereo not drawn) | 4.61 |
| CCOc1ccc(C(=O)NCCC(=O)N2CCC3(CC2)NCCc2[nH]cnc23)cc1 | -5.54 |
| COC(=O)c1ccc(CSc2nc3c(cnn3-c3ccc(F)cc3)c(=O)[nH]2)o1 | 13.1 |
| CCOc1ccc(NC(=O)CSc2nnc(-c3ccccc3)n2N)cc1 | 6.02 |
| O=C(C1CC1)N(CCN(C(=O)C1CC1)c1ccccc1)c1ccccc1 | -1.01 |
| O=C(O)c1cc(N/N=C/c2ccc(OCc3ccccc3)cc2)ccc1Cl | -26.9 |
| O=C(CNC(=O)c1ccc(Cl)cc1Cl)OCCOc1ccccc1 | 2.78 |
| CCN1CCN(C(=O)CCNC(=O)Cn2ccc3ccccc3c2=O)CC1 | 13.9 |
| CC(C)COc1ccc(C(=O)NC(Cc2c[nH]c3ccccc23)C(=O)NN)cc1 (stereo not drawn) | 15.1 |
| COc1ccc([N+](=O)[O-])cc1NC(=O)CCSCCc1ccccn1 | -29.3 |
| Nc1cc(=O)[nH]c(SCC(=O)Nc2ccc(Br)cc2)n1 | 20.6 |
| CC1(C)CC2CC(C)(CN2C(=O)COc2cccc3ccccc23)C1 (stereo not drawn) | -3.79 |
| C=CCOc1ccc(/C=N/NC(=O)C(=O)Nc2ccccn2)cc1OC | -20.9 |
